Results: paper PMC11995724, “Antibiotic target discovery by integrated phenotypic and activity-based profiling of electrophilic fragments” (Cell chemical biology, 2025)
The campaign covered roughly 3,200 compounds. About 75 (2%) showed an effect of 50% or more. The list shows a part of the results.

Each molecule was assayed on T1, S. aureus MSSA476. Conditions: relative growth, OD600, TSB; 25 µM; inhibitor.
T1 construct: MSSA476
Design: species or system S. aureus MSSA476 (TSB) or V. cholerae SAD30 (LB); 384-well bacterial growth screen at 25 uM, OD600 relative to DMSO control

| SMILES | % of control remaining |
| --- | --- |
| Cc1nc(-c2cccc(NC(=O)CCl)c2)cs1 [5-K17, 2-chloro-N-[3-(2-methyl-1,3-thiazol-4-yl)phenyl]acetamide] | 93.6248% |
| CC(Cl)C(=O)Nc1ccc([N+](=O)[O-])cc1C#N (stereo not shown) [5-I15, 2-chloro-N-(2-cyano-4-nitrophenyl)propanamide] | 102.368% |
| N#CC(=Cc1ccc(Cl)cc1)C(=O)Nc1cccc2c1C(=O)NC2=O [9-D09, 3-(4-chlorophenyl)-2-cyano-N-(1,3-dioxo-2,3-dihydro-1H-isoindol-4-yl)prop-2-enamide] | 103.371% |
| C=CC(=O)NC(CN1CCCS1(=O)=O)C1CC1 (stereo not shown) [1-H10, N-[1-cyclopropyl-2-(1,1-dioxo-1lambda6,2-thiazolidin-2-yl)ethyl]prop-2-enamide] | 87.5604% |
| C=CC(=O)Nc1ccc(C(=O)N[C@H]2COC[C@@H]2OC)cc1 (racemic) [3-C08, rac-N-[(3R,4S)-4-methoxyoxolan-3-yl]-4-(prop-2-enamido)benzamide] | 97.1702% |
| CC(Cl)C(=O)NCCc1nnc2n1CCCCC2 (stereo not shown) [7-D09, 2-chloro-N-(2-{5H,6H,7H,8H,9H-[1,2,4]triazolo[4,3-a]azepin-3-yl}ethyl)propanamide] | 92.3077% |
| CCS(=O)(=O)c1ccc(NC(=O)CCl)c(O)c1 [4-P21, 2-chloro-N-[4-(ethanesulfonyl)-2-hydroxyphenyl]acetamide] | 107.861% |
| Cc1cc(C(=O)CCl)c(C)n1CCc1ccc(F)cc1 [10-G14, 2-chloro-1-{1-[2-(4-fluorophenyl)ethyl]-2,5-dimethyl-1H-pyrrol-3-yl}ethan-1-one] | 123.75% |
| C=CC(=O)N(C)CC(=O)N1CCC[C@H](NC(=O)C(F)(F)F)[C@@H]1C (racemic) [2-A20, rac-N-methyl-N-{2-[(2R,3R)-2-methyl-3-(2,2,2-trifluoroacetamido)piperidin-1-yl]-2-oxoethyl}prop-2-enamide] | 147.607% |
| CCCNC(=O)C(C#N)=Cc1ccns1 [9-G03, 2-cyano-N-propyl-3-(1,2-thiazol-5-yl)prop-2-enamide] | 134.831% |
| COc1cc(C=C(C#N)C(=O)NC2CC2)ccc1O [9-G12, 2-cyano-N-cyclopropyl-3-(4-hydroxy-3-methoxyphenyl)prop-2-enamide] | 96.4794% |
| N#CC(=Cc1ccccc1OC(F)F)C(=O)Nc1ccccc1F [8-K21, 2-cyano-3-[2-(difluoromethoxy)phenyl]-N-(2-fluorophenyl)prop-2-enamide] | 118.506% |
| CC(C)c1cc(O)nc(N2CCC(NC(=O)CCl)C2)n1 (stereo not shown) [4-D13, 2-chloro-N-{1-[4-hydroxy-6-(propan-2-yl)pyrimidin-2-yl]pyrrolidin-3-yl}acetamide] | 105.193% |
| Cc1noc(C)c1S(=O)(=O)N1CCCN(C(=O)C(C)Cl)CC1 (stereo not shown) [7-O11, 2-chloro-1-{4-[(3,5-dimethyl-1,2-oxazol-4-yl)sulfonyl]-1,4-diazepan-1-yl}propan-1-one] | 98.2732% |
| Cl.O=C(CCl)NCC1CN(Cc2ccccc2)CC12CCC2 (stereo not shown) [7-H03, N-({6-benzyl-6-azaspiro[3.4]octan-8-yl}methyl)-2-chloroacetamide hydrochloride] | 94.5055% |
| COc1ccc(C=C(C#N)C(=O)Nc2cccc([N+](=O)[O-])c2)cc1 [8-I03, 2-cyano-3-(4-methoxyphenyl)-N-(3-nitrophenyl)prop-2-enamide] | 124.813% |
| Cc1cc(C(=O)CCl)c(C)n1CCC(C)C [10-L03, 2-chloro-1-[2,5-dimethyl-1-(3-methylbutyl)-1H-pyrrol-3-yl]ethan-1-one] | 114.687% |
| C=CC(=O)NC1(Cc2ccccc2)CC1 [3-P13, N-(1-benzylcyclopropyl)prop-2-enamide] | 84.9804% |
| N#CC(C(=O)CCl)=C(c1ccc(F)cc1)N1CCOCC1 [10-C20, 4-chloro-2-[(4-fluorophenyl)(morpholin-4-yl)methylidene]-3-oxobutanenitrile] | 107.5% |
| O=C(CCl)NC1CN(C(=O)C2CC2)C1 [6-P22, 2-chloro-N-(1-cyclopropanecarbonylazetidin-3-yl)acetamide] | 91.1707% |
| COc1ccc(C=C(C#N)C(=O)Nc2ccc(C)cc2)cc1O [9-O12, 2-cyano-3-(3-hydroxy-4-methoxyphenyl)-N-(4-methylphenyl)prop-2-enamide] | 114.757% |
| C=CC(=O)N1CCCC1c1c(C)nn(CC(C)C)c1Cl (stereo not shown) [1-F19, 1-{2-[5-chloro-3-methyl-1-(2-methylpropyl)-1H-pyrazol-4-yl]pyrrolidin-1-yl}prop-2-en-1-one] | 109.714% |
| CN(C)C(=O)C(CNC(=O)CCl)c1ccccc1 (stereo not shown) [7-J12, 3-(2-chloroacetamido)-N,N-dimethyl-2-phenylpropanamide] | 108.948% |
| CN(CC(=O)Nc1ccc(Cl)cc1)C(=O)CCl [4-D03, 2-chloro-N-{[(4-chlorophenyl)carbamoyl]methyl}-N-methylacetamide] | 80.0381% |
| Cc1cc(CN(Cc2cnn(C)c2)C(=O)CCl)ccc1Cl [5-G12, 2-chloro-N-[(4-chloro-3-methylphenyl)methyl]-N-[(1-methyl-1H-pyrazol-4-yl)methyl]acetamide] | 116.211% |
| O=C(CCl)NC(c1ccccc1)C1CCCC1 (stereo not shown) [6-O18, 2-chloro-N-[cyclopentyl(phenyl)methyl]acetamide] | 82.9756% |
| C=CC(=O)N1CCCC(S(C)(=O)=O)C1 (stereo not shown) [1-J18, 1-(3-methanesulfonylpiperidin-1-yl)prop-2-en-1-one] | 119.209% |
| O=C(CCl)Nc1ccc(S(=O)(=O)Nc2ccccc2)cc1 [5-K22, 2-chloro-N-[4-(phenylsulfamoyl)phenyl]acetamide] | 99.4536% |
